In PubChem BioAssay AID1865 (National Center for Advancing Translational Sciences (NCATS), 2009):
About 540 (0.19%) of roughly 280,000 compounds were called active. This list was built around the results that the source calls inconclusive (neither active nor inactive); the mix of calls is not that of the screen. Calls follow the shape of the dose curve; as a rule, active = well fitted activation curve with a large enough effect; inconclusive = small, poorly fitted or top-dose-only effect; inactive = flat fitted curve, though single readings scatter. Potencies of inconclusive entries are doubtful fits and often do not repeat.

experiment: Quantitative High-Throughput Screen for Regulators of Epigenetic Control; conditions: murine LDR cells, GFP reporter derepression, 30 h; GFP activation: at 53.9 µM (top of the series); also: nearly all actives have a fitted effect of over 60% in size; as to GFP activation: % of control where 0% means no effect
In short: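 Readout is the number of GFP-expressing murine LDR cells, counted by cytometry following washing. Cells were treated with compound for 30 h at 37 C; the stably integrated CMV-GFP locus is normally silent.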
Potency is read from the fitted curve at half-maximal effect; tags tell the direction and shape of the fitted curve.

Compound	Potency	GFP activation
Cc1ccc(NC(=O)Cn2c(=O)n(Cc3ccco3)c(=O)c3sc4ccccc4c32)cc1C	inconclusive: 35.5 µM [activator, single point]	–
COc1cc(Cl)c(C)cc1NC(=O)C1CCN(c2nc3ccccc3n3cccc23)CC1	inconclusive: 14.1 µM [activator, single point]	–
COC(=O)c1cccc(Cn2c(Cl)c(/C=N/Nc3ccccc3C)sc2=O)c1	inconclusive: 5.62 µM [activator, single point]	–
CCCCC(=O)Nc1sc2c(c1-c1nc3ccccc3s1)CCN(C(C)=O)C2	inconclusive: 35.5 µM [activator, single point]	–
O=C(Nc1cc(-c2nc3cc(Cl)ccc3o2)ccc1Cl)c1ccco1	inconclusive: 35.5 µM [activator, single point]	–
Cc1[nH]nc2c1C(c1ccc(-c3ccc(Cl)cc3)o1)C(C#N)=C(N)O2 (centres undefined)	inconclusive: 31.6 µM [activator, single point]	–
Cc1ccc(NC(=O)Cc2ccc(-n3c(C)nc4cccnc43)cc2)c(Cl)c1	inconclusive: 2.82 µM [activator, single point]	–
O=C(CN1C(=O)C(c2ccc(F)cc2)=NC12CCCCCC2)Nc1ccccc1Cl	–	inactive: -2.65%
Cc1ccccc1-c1cc2c(nn1)-c1ccccc1C2=O	–	inactive: -0.952%
Cn1cnc([N+](=O)[O-])c1Oc1cccc2ccccc12	inconclusive: 35.5 µM [activator, single point]	–
CCCCCCCCCCCCC/C=C/[C@@H](O)[C@H](CO)NC(C)=O	–	inactive: 0%
Cc1nc2ccc(S(=O)(=O)NCC(=O)N(C)Cc3ccco3)cc2s1	–	inactive: 0.0534%
CCc1ccc(/C=C2/C(=O)N(c3ccccc3)C(=S)N2CC(=O)OC)s1	inconclusive: 35.5 µM [activator, single point]	–
CC(C)CNC(=O)c1coc(=O)c(Br)c1	inconclusive: 35.5 µM [activator, single point]	–
O=Cc1s/c(=N\S(=O)(=O)c2ccccc2)n(CCCCl)c1Cl	inconclusive: 5.01 µM [activator, partial curve]	–
N#Cc1sc2nc(-c3cccs3)cc(-c3ccc(Cl)cc3)c2c1N	active: 14.1 µM	–
COc1ccccc1CNC(=O)C1CCCN(c2nn3cc(-c4ccc(F)cc4)nc3s2)C1 (centres undefined)	inconclusive: 28.2 µM [activator, single point]	–
O=S(=O)(NNc1nccc(C(F)(F)F)n1)c1cccc(Cl)c1Cl	inconclusive: 35.5 µM [activator, single point]	–
COc1cccc(C(=O)/C=C/c2ccc(N3CCCCC3)c([N+](=O)[O-])c2)c1	inconclusive: 35.5 µM [activator, single point]	–
CCC(=O)N1CCCc2cc(S(=O)(=O)N3CCC(C(=O)Nc4ccc(F)c(F)c4)CC3)ccc21	–	inactive: 0%
CCOc1ccc(C(=O)Nc2nnc(S(=O)(=O)N(CC)c3ccccc3C)s2)cc1	inconclusive: 7.08 µM [activator, full curve]	–
O=C(NCc1ccccc1)c1ccccc1CO	inconclusive: 10 µM [activator, partial curve]	–
CCOC(=O)C(C)/C(C)=N/NC(N)=S (centres undefined)	inconclusive: 31.6 µM [activator, single point]	–

Compound	Potency	GFP activation
C[C@@H](CN(C)C)CN1c2ccccc2Sc2ccccc21	–	inactive: 1.11% [at 16.9 µM]
CCCC(=O)NC(c1ccco1)c1cc(Cl)c2cccnc2c1O (centres undefined)	inconclusive: 31.6 µM [activator, single point]	–
COc1ccc(C(=O)/C=C/c2cn(CC(O)CN(CC(C)C)CC(C)C)c3ccccc23)cc1 (centres undefined)	inconclusive: 12.6 µM [activator, single point]	–
COc1ccc(C2=NN(C(=O)c3cccs3)C(c3ccccc3O)C2)cc1 (centres undefined)	inconclusive: 31.6 µM [activator, single point]	–
C=CCn1cc(/C=N/Nc2nc3ccccc3[nH]2)c2ccccc21	inconclusive: 35.5 µM [activator, single point]	–
CCC(=O)N1CCc2cc(Br)cc(S(=O)(=O)CCC(=O)Nc3ccc(C)c(C)c3)c21	–	inactive: 2.15%
COc1ccc(-c2[nH]ncc2N=Nc2cc(C)cc(C)c2)cc1	inconclusive: 35.5 µM [activator, single point]	–
N/C(=N\OC(=O)COc1ccc2ccccc2c1Br)c1ccncc1	–	inactive: 6.08%
COC(=O)c1[nH]c2ccccc2c1NC(=O)CN1CCN(c2cccc(Cl)c2)CC1	inconclusive: 7.08 µM [activator, partial curve]	–
COc1ccnc(CSC(N)=Nc2ccccc2C(F)(F)F)c1	–	inactive: -1.09%
CCCn1c2ccccc2c2nnc(SCC(=O)Nc3cc(C)on3)nc21	inconclusive: 35.5 µM [activator, single point]	–
Oc1ccc(/C=N/Nc2cc(N3CCCC3)nc(N3CCCC3)n2)cc1	inconclusive: 35.5 µM [activator, single point]	–
CC12CC[C@@](C(=O)O)(C(=O)C1=O)C2(C)C	–	inactive: 0%
CCN(CC)c1ccc(S(=O)(=O)N2CCOCC2)cc1NC(=O)CSc1cccc[n+]1[O-]	inconclusive: 35.5 µM [activator, single point]	–
COC(=O)c1cc(OC)c(OC)cc1NC(=O)Nc1ccc(OC)cc1OC	–	inactive: -5.95%
O=C(Oc1ccc(Cl)c2cccnc12)c1ccco1	inconclusive: 20 µM [activator, single point]	–
Cc1ccc(NC(=O)CSc2nc(-c3ccc(C(C)(C)C)cc3)nc3cc(=O)[nH]n23)cc1C	–	inactive: -3.14%
Cc1ccc(-c2nc(-c3cc4cccc(OCc5ccc(F)cc5)c4oc3=O)no2)cc1	inconclusive: 31.6 µM [activator, single point]	–
CCN(c1ccccc1)S(=O)(=O)c1nnc(NC(=O)C(C)(C)C)s1	inconclusive: 3.55 µM [activator, full curve]	–
O=C(N/N=C/c1ccccn1)c1cccc([N+](=O)[O-])c1	inconclusive: 22.4 µM [activator, single point]	–
O=C(N/N=C/c1ccccn1)c1ccc(Br)cc1	inconclusive: 5.62 µM [activator, single point]	–
Cc1ccc2nc(COc3ccccc3NC(=O)c3ccccc3F)cc(=O)n2c1	inconclusive: 31.6 µM [activator, single point]	–
C=C1c2c(Cl)ccc(O)c2C(O)=C2C(=O)[C@]3(O)C(O)=C(C(N)=O)C(=O)C(N(C)C)C3C(O)C12 (some centres undefined)	–	inactive: -0.5%

Compound	Potency	GFP activation
Cc1snc2sc(C(=O)c3ccc(Br)cc3)c(N)c12	inconclusive: 25.1 µM [activator, single point]	–
Cc1cccc(NC(=O)c2sc3nc(-c4ccccc4)cn3c2C)c1C	inconclusive: 15.8 µM [activator, single point]	–
COc1ccc(-c2cc(C(F)(F)F)nc(SCC(=O)Nc3ccc4c(c3)OCO4)n2)cc1OC	inconclusive: 35.5 µM [activator, single point]	–
CCn1nc(C(=O)Nc2cccc3ccccc23)c(Cl)c1Cl	–	inactive: 0%
O=C(CS(=O)c1ccc(C(F)(F)F)cc1[N+](=O)[O-])Oc1ccccc1 (centres undefined)	inconclusive: 35.5 µM [activator, single point]	–
Cc1ccc(S(=O)(=O)c2c(Nc3cc(C)ccc3C)sc(C(=O)c3ccc4c(c3)OCO4)c2N)cc1	–	inactive: -2.47%
Cc1ccc(NC(=O)CSc2ccc(-c3ccco3)nn2)c(C)c1	–	inactive: 1.14%
CC(C)(C)OC(=O)NCCCC[C@H](NC(=O)c1nc[nH]c1C(=O)N[C@@H](CCCCNC(=O)OC(C)(C)C)C(=O)OC(C)(C)C)C(=O)OC(C)(C)C	–	inactive: -2.95%
COc1ccc(CCNc2ccc(C(=O)O)cc2[N+](=O)[O-])cc1OC	inconclusive: 3.55 µM [activator, single point]	–
Cc1ccc2c(C)nc(Nc3nc(CSc4nc5ccccc5[nH]4)cc(=O)[nH]3)nc2c1	active: 35.5 µM	–
CCOC(=O)c1ccc(NC(=O)CCn2c(=O)c3cccn3c3cccnc32)cc1	inconclusive: 25.1 µM [activator, single point]	–
CCOC(=O)/C(C#N)=C/c1ccc(-c2ccc(Br)cc2)o1	inconclusive: 35.5 µM [activator, single point]	–
Cc1ccc2c(c1)N=C(c1ccc(F)cc1)CO2	–	inactive: 0.0462%
O=C(Nc1nnc(S(=O)(=O)N2CCN(c3ccc(F)cc3)CC2)s1)c1ccc(Cl)cc1	inconclusive: 25.1 µM [activator, single point]	–
Cc1ccnc(N2C(=O)c3cccc4c([N+](=O)[O-])ccc(c34)C2=O)c1	inconclusive: 3.55 µM [activator, full curve]	–
COc1cccc(/C=C/C(=O)c2ccc(NC3=NCCCS3)cc2)c1	inconclusive: 17.8 µM [activator, single point]	–
O=c1[nH]c(-c2ccccc2)nc2sc(-c3ccccc3)cc12	inconclusive: 35.5 µM [activator, single point]	–
COc1ccc(N(CC(=O)NCCc2cccc(C)c2)S(=O)(=O)c2c(C)noc2C)cc1	–	inactive: 0.33%
CC(C)(C)c1nnc(SCC(=O)c2ccccc2)n(N)c1=O	inconclusive: 20 µM [activator, single point]	–
CCOc1ccc(Br)cc1S(=O)(=O)NCc1ccc(S(N)(=O)=O)cc1	inconclusive: 28.2 µM [activator, single point]	–
CC(=O)Nc1ccc(OCC(O)Cn2c(C)nc3ccccc32)cc1 (centres undefined)	–	inactive: 7.71%
COc1ccccc1NC(=S)N(Cc1cccs1)C1CCCC1	–	inactive: 0.0725%
COCCCNCCOCCSc1ccc(Cl)cc1	–	inactive: 0%
